This is one part of the list. Further columns of the screen follow, without active or inactive calls. Most of these compounds were active or inconclusive in the main read-out, so they are no random draw. Residues, ends and D or L forms follow the SMILES beside them. *: point of attachment. Cbz = O=C(OCc1ccccc1)*; Boc = CC(C)(C)OC(=O)*
Experiment: beta-lactam sensitization of Mtb H37Rv, H37Rv (AID 434955);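 note: growth measured after seven days incubation then overnight dye step; 0% = bacteria only wells and 100% = bacteria with antibiotic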
Conditions: M. tuberculosis H37Rv growth with meropenem, percent inhibition; measured here: primary screen without meropenem; at 25 µM

Question: With `S=c1nc(-c2ccccc2)n(CCN2CCOCC2)c2c1CCCC2` as the compound, how does the inhibition read?
Answer: -6.8%

Question: With `O=C(C1CCN(S(=O)(=O)c2ccccc2)CC1)N1CCN(Cc2ccc3c(c2)OCO3)CC1` as the compound, how does the inhibition read?
Answer: -3.36%

Question: For `CCCC(C)C(=O)Nc1cccc(NC(C)=O)c1` (centres undefined), which inhibition is on record?
Answer: -0.28%

Question: With `O=C1c2cc(F)ccc2-n2c1nc1ccccc1c2=O` as the compound, how does the inhibition read?
Answer: 99.1%

Question: With `COc1cc(C(=O)NCCC(=O)NCCc2ccc(Cl)cc2)cc(OC)c1OC` as the compound, how does the inhibition read?
Answer: 6.19%

Question: For `COc1cc(SC)ccc1C(=O)Nc1ccc(C)cc1C`, which inhibition is on record?
Answer: -1.09%

Question: Which inhibition does the source give for `Nc1c(C(=O)N2CCCC2)sc2nc3c(cc12)CCCCCC3` here?
Answer: 16.2%

Question: For `O=C(CSc1nc2ncccc2[nH]1)NCc1ccco1`, which inhibition is on record?
Answer: -2.83%

Question: For `COc1nc(-c2ccccc2)ccc1-c1noc(-c2cccs2)n1`, which inhibition is on record?
Answer: -4.23%

Question: Which inhibition does the source give for `Cc1ccnn1CC(=O)N/N=C/c1ccc([N+](=O)[O-])s1` here?
Answer: 5.48%

Question: With `CCCCc1nc2cc(C(=O)N3CCCCC3CC(=O)OCC)ccc2o1` (centres undefined) as the compound, how does the inhibition read?
Answer: -1.4%

Question: With `C#CCSc1nnc(-c2sc3ccccc3c2Cl)o1` as the compound, how does the inhibition read?
Answer: 21.4%

Question: With `COc1cc(OC)c(OC)cc1/C=C1\CCC(C2CCCC2)C1=O` (centres undefined) as the compound, how does the inhibition read?
Answer: 0.78%

Question: With `CC(C)(C)OC(=O)NCCCC[C@H](NC(=O)[C@H](Cc1c[nH]c2ccccc12)NC(=O)OCc1ccccc1)C(=O)O` (Cbz-Trp-Lys(Boc)-OH) as the compound, how does the inhibition read?
Answer: 7.99%

Question: With `O=c1[nH]cc(COCc2ccccc2)c(=O)[nH]1` as the compound, how does the inhibition read?
Answer: -0.49%

Question: With `O=C(NCCc1ccccc1)/C(=C\c1ccc([N+](=O)[O-])cc1)NC(=O)c1ccc(Br)cc1` as the compound, how does the inhibition read?
Answer: -6.49%

Question: For `CCOc1ccc(N2C(=O)CC(N)C2=O)cc1` (centres undefined), which inhibition is on record?
Answer: 11.5%

Question: For `COc1ccc(CC2=C(O)c3ccccc3C(=O)C2=O)cc1`, which inhibition is on record?
Answer: 13.4%

Question: For `CCOC(=O)/C=c1\s/c(=C\c2c(OC)ccc3ccccc23)c(=O)n1CC(=O)NCC1CCCO1` (centres undefined), which inhibition is on record?
Answer: 17%

Question: With `O=C(CCNS(=O)(=O)c1ccccc1)N1CCN(c2ccccc2)CC1` as the compound, how does the inhibition read?
Answer: 2.87%

Question: For `Cn1c(NCc2ccccc2)nc2c1c(=O)n(Cc1ccc(Br)cc1)c(=O)n2C`, which inhibition is on record?
Answer: 49.5%

Question: With `O=C1C=C(c2ccccc2)OC2(CCCC2)O1` as the compound, how does the inhibition read?
Answer: -9.26%

Question: Which inhibition does the source give for `COC(=O)C1=C(c2cccc(OCc3ccccc3)c2)C[C@@H]2CC[C@H]1N2C(=O)NC1CCN(Cc2ccccc2)CC1` here?
Answer: 98%

Question: For `O=C(c1ccc2oc(Cc3ccc(Cl)cc3)nc2c1)N1CCCCC1CCO` (centres undefined), which inhibition is on record?
Answer: 18.6%

Question: Which inhibition does the source give for `Cc1ccc(NC(=O)c2oc3ccccc3c2NC(=O)C2CC2)cc1` here?
Answer: 0.67%

Question: For `O=C1OC(/C=C/c2ccc(Cl)cc2Cl)=NC/1=C\c1cccs1`, which inhibition is on record?
Answer: 52.4%

Question: With `CCOc1ccccc1CNC(=O)c1cc2oc3ccccc3c2n1C` as the compound, how does the inhibition read?
Answer: -0.02%

Question: With `CN(CC1COCCO1)C(=O)c1cc(COc2c(F)cccc2F)on1` (centres undefined) as the compound, how does the inhibition read?
Answer: -1.95%

Question: For `Cc1ccc(OCCn2cc(/C=C3\C(=O)NN(c4ccccc4)C3=O)c3ccccc32)cc1`, which inhibition is on record?
Answer: 39.1%

Question: For `CCOC(=O)c1ccc(NC(=O)Cn2cc3c(n2)CCC(C)C3)cc1` (centres undefined), which inhibition is on record?
Answer: -7.99%

Question: Which inhibition does the source give for `CCc1ccc(OCCNC(=O)c2ccco2)cc1` here?
Answer: 2.69%

Question: With `C[C@]12CCC(=O)CC1CCC1C2CC[C@]2(C)C(OC(=O)CCC(=O)O)CCC12` (some centres undefined) as the compound, how does the inhibition read?
Answer: 1.54%

Question: For `Cc1ccc(-n2nc3c(c2NC(=O)C(C)(C)C)CS(=O)(=O)C3)cc1`, which inhibition is on record?
Answer: 6.1%

Question: With `COc1cccc(C(=O)O/N=C(\N)c2ccncc2)c1` as the compound, how does the inhibition read?
Answer: 0.75%

Question: With `CCCSc1nnc(NC(=O)c2sc3nc(-c4cccs4)ccc3c2N)s1` as the compound, how does the inhibition read?
Answer: 5.61%

Question: Which inhibition does the source give for `O=C(NC(=S)N1CCCC1)c1ccccc1` here?
Answer: 2.73%

Question: Which inhibition does the source give for `Cc1c(C(=O)N2CCN(c3ccc(F)cc3)CC2)oc2c1C(=O)CCC2` here?
Answer: 8.42%

Question: Which inhibition does the source give for `N#C/C(=C\c1cn[nH]c1-c1ccc(Cl)cc1)C(=O)NC1CC1` here?
Answer: -3.37%

Question: With `Cc1cc(N2CCN(c3ccccc3)CC2)nc2ccccc12` as the compound, how does the inhibition read?
Answer: 43.6%

Question: With `Cc1c(NC(=O)c2cc(-c3ccco3)on2)c(=O)n(-c2ccccc2)n1C` as the compound, how does the inhibition read?
Answer: 0.86%

Question: For `COc1ccc(CCN(C)C2CCCN(C(=O)Cn3cnnn3)C2)cc1OC` (centres undefined), which inhibition is on record?
Answer: -0.14%

Question: With `CSCc1ccc(C(=O)N2CCC(N3CCC(C(=O)NC(C)C)CC3)CC2)o1` as the compound, how does the inhibition read?
Answer: -4.49%

Question: For `CSc1ccccc1OCc1cc(C(=O)NC2CCOC(C)(C)C2)no1` (centres undefined), which inhibition is on record?
Answer: -9.04%

Question: For `c1ccc(-c2noc(-c3cccc4ccccc34)n2)cc1`, which inhibition is on record?
Answer: 35.3%

Question: Which inhibition does the source give for `OC(COc1ccc2cc(Br)ccc2c1)CN1CCCC1` (centres undefined) here?
Answer: 1.04%

Question: Which inhibition does the source give for `COC(=O)C1C(=O)NC(SC)=C(C#N)C1c1ccccc1F` (centres undefined) here?
Answer: -2.32%

Question: Which inhibition does the source give for `CCN1c2ccccc2-c2nc3ccccc3n2C1c1cccs1` (centres undefined) here?
Answer: 1.61%

Question: Which inhibition does the source give for `CC(=O)N(CN1C(=O)c2ccccc2C1=O)c1ccc2c(c1)oc1ccccc12` here?
Answer: -1.54%

Question: For `Cc1ccc(C(=O)C2=C(O)C(=O)N(Cc3cccnc3)C2c2ccc(Br)cc2)o1` (centres undefined), which inhibition is on record?
Answer: -4.93%

Question: Which inhibition does the source give for `COC(=O)c1c(NC(=O)c2ccc(C)cc2)csc1C` here?
Answer: 32.1%

Question: Which inhibition does the source give for `O=C(N[C@H]1CCC(=O)N(CCSc2ccc(Br)cc2)CC1)OCc1ccccc1` here?
Answer: 97.6%

Question: Which inhibition does the source give for `O=C1CN(C(=S)NC(=O)c2ccc(-c3ccccc3)cc2)CCN1` here?
Answer: 8.28%

Question: With `Cc1cc(NC(=O)CSc2nnc(CNC(=O)c3ccc(C(C)(C)C)cc3)o2)no1` as the compound, how does the inhibition read?
Answer: 5.55%

Question: For `Cc1ccc(-c2[nH][nH]c(=O)c(=O)c2N=Nc2ccccc2)cc1`, which inhibition is on record?
Answer: 33.9%

Question: For `CCOc1ccc2[nH]c(C)cc(=O)c2c1`, which inhibition is on record?
Answer: -4.26%

Question: Which inhibition does the source give for `Nc1c(C(=O)NCCc2ccccc2)nnn1Cc1ccccc1` here?
Answer: 3.23%

Question: With `O=C(NCCN1CCOCC1)c1ccc(CS(=O)(=O)c2ccc(Br)cc2)o1` as the compound, how does the inhibition read?
Answer: -8.72%

Question: Which inhibition does the source give for `O=C(Nc1nc2cc3c(cc2s1)OCCO3)c1ccco1` here?
Answer: 14.9%

Question: With `CCOC(=O)c1cccc(NC(=O)CCn2nc(C)c(S(=O)(=O)N3CCCCC3)c2C)c1` as the compound, how does the inhibition read?
Answer: -3.58%

Question: Which inhibition does the source give for `Cc1ccc(C(=O)COC(=O)C(C)N2C(=O)C3C4CCC(C4)C3C2=O)cc1C` (centres undefined) here?
Answer: 2.14%

Question: Which inhibition does the source give for `CC(=O)NC(c1cc(Cl)c2cccnc2c1O)C1CC1` (centres undefined) here?
Answer: 83.8%

Question: With `COc1cccc(C(=O)N2CCC(n3nccc3NC(=O)C(OC)c3ccccc3)CC2)c1` (centres undefined) as the compound, how does the inhibition read?
Answer: -3.2%

Question: Which inhibition does the source give for `COc1ccc(C(=O)NCC(=O)NCC(=O)OCC(=O)c2ccc(C)cc2)cc1` here?
Answer: -10.3%

Question: Which inhibition does the source give for `Cn1cc([N+](=O)[O-])c(C(=O)Nc2sc3c(c2C#N)CCC3)n1` here?
Answer: -0.23%

Question: For `C=CCOc1cccc(/C=N/NC(=O)CC(=O)NC2CCCCC2)c1`, which inhibition is on record?
Answer: -8.12%

Question: With `O=C(CCSc1ccc(Cl)c(Cl)c1)NC12CC3CC(CC(C3)C1)C2` as the compound, how does the inhibition read?
Answer: 41%

Question: With `CCC(C)NC(=O)CC1Oc2ccc(C)cc2NC1=O` (centres undefined) as the compound, how does the inhibition read?
Answer: -0.55%

Question: Which inhibition does the source give for `COc1ccc2c(C)nc(Nc3nc(-c4ccccc4)cc(=O)[nH]3)nc2c1` here?
Answer: 24.2%

Question: Which inhibition does the source give for `N#CC1=C2C=Cc3ccccc3N2CCCC1=O` here?
Answer: 16.2%

Reference: PubChem BioAssay AID434955 (Southern Research Specialized Biocontainment Screening …, 2010)
